Experimental data from PubChem BioAssay AID1347165 (National Center for Advancing Translational Sciences (NCATS), 2019).
Values joined by “and” are separate entries in the source; they are usually repeats but may differ in a detail not shown here. Equal entries are not always repeated. Among all 220,000 compounds or so, about 5,700 (2.6%) were called active. This list was built around the results that the source calls inconclusive (neither active nor inactive); the mix of calls is not that of the screen. The call rests on the fitted dose curve; in most records, active means well fitted inhibition curve with a large enough effect; inconclusive means small, poorly fitted or top-dose-only effect; inactive means no such curve, though single readings can be large or run the other way. Where the call is inconclusive, the potency comes from a doubtful curve fit.

Biological target: Lysine-specific demethylase 5B (Homo sapiens) (UniProt Q9UGL1)
Assay: Primary screen for KDM5B Histone Demethylases FDH-coupled qHTS; further: nearly all actives have a fitted effect of over 70% in size; on activity change, negative = inhibition: 0% is about no effect
Settings: FDH-coupled NADH fluorescence (FDH is formaldehyde dehydrogenase); activity change, negative = inhibition: at 57.7 µM (top of the series) unless noted
Outline: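 KDM5BΔAP (200 nM final) in 50 mM HEPES pH 7.5, 0.01% Tween-20 was preincubated 10 min at RT with compound over a concentration range. Substrate mix (H3K4me3 12.5 µM, α-KG 25 µM, Fe²⁺, ascorbate, NAD⁺, FDH) was added, and NADH fluorescence change over 30 min gave dose-response curves.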
Potency means the concentration at half of the fitted maximal effect; tags describe the fitted curve by direction and shape.

Sequence of UniProt Q9UGL1 (Q9UGL1 whole entry, looked up): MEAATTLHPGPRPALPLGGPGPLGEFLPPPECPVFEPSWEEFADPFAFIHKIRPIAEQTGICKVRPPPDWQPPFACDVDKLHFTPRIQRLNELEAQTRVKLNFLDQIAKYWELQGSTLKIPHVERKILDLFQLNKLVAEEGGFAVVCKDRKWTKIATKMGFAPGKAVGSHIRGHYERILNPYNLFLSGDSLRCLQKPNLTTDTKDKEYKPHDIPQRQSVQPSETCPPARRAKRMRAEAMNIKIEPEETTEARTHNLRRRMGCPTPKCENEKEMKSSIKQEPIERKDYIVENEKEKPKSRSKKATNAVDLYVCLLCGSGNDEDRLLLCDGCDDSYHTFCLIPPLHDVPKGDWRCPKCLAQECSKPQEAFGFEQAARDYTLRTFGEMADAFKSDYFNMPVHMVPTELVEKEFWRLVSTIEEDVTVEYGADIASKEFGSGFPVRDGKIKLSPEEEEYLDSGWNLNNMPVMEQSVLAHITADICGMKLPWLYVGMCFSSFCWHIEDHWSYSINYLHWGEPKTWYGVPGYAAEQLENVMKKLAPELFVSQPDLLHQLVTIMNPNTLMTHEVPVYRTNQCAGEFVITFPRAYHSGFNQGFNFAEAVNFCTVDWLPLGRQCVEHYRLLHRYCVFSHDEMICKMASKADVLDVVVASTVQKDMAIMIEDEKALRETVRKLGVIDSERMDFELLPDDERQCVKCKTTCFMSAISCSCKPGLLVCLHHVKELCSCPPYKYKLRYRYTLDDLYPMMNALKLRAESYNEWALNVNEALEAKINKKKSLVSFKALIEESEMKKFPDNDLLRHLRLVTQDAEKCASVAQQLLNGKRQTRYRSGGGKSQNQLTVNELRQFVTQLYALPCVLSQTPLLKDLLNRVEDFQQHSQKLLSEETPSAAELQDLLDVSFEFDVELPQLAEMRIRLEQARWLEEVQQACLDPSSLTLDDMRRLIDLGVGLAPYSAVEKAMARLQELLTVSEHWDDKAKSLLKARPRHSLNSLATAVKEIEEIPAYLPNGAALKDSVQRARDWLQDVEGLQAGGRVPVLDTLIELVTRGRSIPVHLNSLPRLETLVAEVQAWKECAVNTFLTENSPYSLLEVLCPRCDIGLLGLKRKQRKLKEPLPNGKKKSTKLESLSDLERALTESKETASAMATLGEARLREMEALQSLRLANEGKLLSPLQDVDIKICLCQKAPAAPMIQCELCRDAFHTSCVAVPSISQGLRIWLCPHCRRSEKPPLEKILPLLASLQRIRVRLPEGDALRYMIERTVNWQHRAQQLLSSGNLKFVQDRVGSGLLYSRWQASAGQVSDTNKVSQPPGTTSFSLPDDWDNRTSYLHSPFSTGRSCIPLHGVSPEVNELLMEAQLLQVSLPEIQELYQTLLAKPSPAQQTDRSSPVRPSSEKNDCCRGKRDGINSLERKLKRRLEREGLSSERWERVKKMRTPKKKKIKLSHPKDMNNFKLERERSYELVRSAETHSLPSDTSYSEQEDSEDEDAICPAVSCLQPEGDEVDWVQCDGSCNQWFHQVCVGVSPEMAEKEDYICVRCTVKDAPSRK

Row | SMILES | activity change, negative = inhibition | Potency
1 | NC(=O)c1ccc(CN(C(=O)/C=C/c2cccs2)C2CC2)cc1 | inactive: 14.7% | –
2 | Cn1c(=O)[nH]c(=O)c2c1nc(N1CCN(c3ccccc3)CC1)n2Cc1ccccc1F | inactive: 20.4% | –
3 | CN(C)C(=O)c1cc(-c2ccc(Cl)cc2Cl)c2cnn(C)c2n1 | – | inconclusive: 100 µM [inhibitor, partial curve, poor fit]
4 | Cc1ccc(Nc2nc(N3CCCC3)nc3nccnc23)c(C)c1 | inactive: -6.54% | –
5 | COc1cc(OC)cc(C(=O)N2CCC3(CC2)N=C(c2ccc(Cl)cc2)NO3)c1 | – | inconclusive: 22.4 µM [inhibitor, single point]
6 | COc1ccc(-c2nc(C)nc3c2CN(C(=O)c2ccc(C)cc2)CC3)cc1 | – | inconclusive: 22.4 µM [inhibitor, partial curve, poor fit]
7 | CC(=O)Nc1ccc(NC(=O)CSc2nc3ccccc3nc2N2CCC(C)CC2)cc1 | – | inconclusive: 35.5 µM [inhibitor, single point]
8 | CCOc1ccc(-c2nnc(N3CCCCC3)c3ccccc23)cc1 | inactive: 15.9% | –
9 | O=C(c1cc2ccccc2[nH]1)N1CCCN(c2cc(-c3ccccc3)[nH]n2)CC1 | – | inconclusive: 35.5 µM [inhibitor, partial curve, poor fit]
10 | CC1Cc2cc(-c3ccnc4ncnn34)ccc2O1 (stereo not given) | – | active: 28.2 µM
11 | CCOC(=O)c1ccc(NC(=O)c2c(NCc3cccs3)sc3c2CCCC3)cc1 | – | inconclusive: 14.1 µM [inhibitor, partial curve, poor fit]
12 | CCc1ccc(S(=O)(=O)c2cn(C)c3cc(N4CCC(C)CC4)c(F)cc3c2=O)cc1 | – | inconclusive: 5.62 µM [inhibitor, full curve, poor fit]
13 | Cc1cc(=O)oc2cc(OCC(=O)N3CCc4sccc4C3C)ccc12 (stereo not given) | – | inconclusive: 25.1 µM [inhibitor, single point]
14 | COc1cccc(-c2ccc(CN3CCN(c4cc(Cl)ncn4)C(=O)C3)cc2)c1 | – | inconclusive: 28.2 µM [inhibitor, single point]
15 | CCOc1ccc(NC(=O)c2cnn3c2NC(c2cccc(OC)c2)=CC3c2ccccc2)cc1 (stereo not given) | – | inconclusive: 22.4 µM [inhibitor, single point]
16 | Brc1cccc(/C=N/Nc2ccc3ccccc3c2)c1 | – | inconclusive: 17.8 µM [inhibitor, partial curve, poor fit]
17 | Cc1ccc(C2=NN(CC(=O)NCCC(C)C)C(=O)CC2)cc1 | inconclusive: -38.4% [inhibitor] | –
18 | COc1ccc(C(O)C(=O)N2CCC3(CCC(=O)N(C4CC4)C3)CC2)cc1 (stereo not given) | inactive: 22% | –
19 | NC(=O)Cc1csc(NC(=O)CCc2ncc(-c3ccc(F)cc3F)o2)n1 | inactive: 11.8% | –
20 | COc1ccccc1-c1ccc(CN2CCCC(c3nc4ccc(C)cc4c(=O)[nH]3)C2)cc1 (stereo not given) | – | inconclusive: 79.4 µM [inhibitor, partial curve] and inconclusive: 22.4 µM [inhibitor, single point]

Row | SMILES | activity change, negative = inhibition | Potency
21 | CCOc1ccccc1C(=O)Nc1c(C(=O)Nc2ccc(F)cc2)oc2ccccc12 | – | inconclusive: 35.5 µM [inhibitor, partial curve, poor fit]
22 | COc1ccc(-c2ccc3nnc(CNC(=O)c4ccc(C)cc4C)n3n2)cc1 | – | active: 28.2 µM
23 | CCOc1ccc(C2Nc3c(C)cccc3-c3cc(C)nn32)cc1 (stereo not given) | – | inconclusive: 31.6 µM [inhibitor, partial curve, poor fit]
24 | CN1CC(=O)N(C2CCCNC2)Cc2c(NCCCN3CCCCC3)ncnc21 (stereo not given) | – | inconclusive: 39.8 µM [inhibitor, partial curve]
25 | Cc1nnnn1-c1cccc(C(=O)N2CC[C@@](O)(C3CCOCC3)[C@H](C)C2)c1 | inactive: 6.09% | –
26 | CO[C@H]1[C@H](NC(=O)c2cc(C)oc2C)c2ccccc2C12CCNCC2 | – | inconclusive: 28.2 µM [inhibitor, partial curve, poor fit]
27 | CCCN1CCCCC12Cc1ccccc1CN(C(C)=O)C2 (stereo not given) | – | inconclusive: 56.2 µM [inhibitor, partial curve, poor fit]
28 | COc1ccc(Oc2coc3cc(OC(=O)c4cccc(OC)c4)ccc3c2=O)cc1 | inactive: 6.82% | –
29 | CN(/N=C/c1cc(Cl)cc(Cl)c1O)C(=S)NC(C)(C)C | – | inconclusive: 25.1 µM [inhibitor, single point]
30 | COc1cccc(CCC(=O)NC2CCN(C(=O)c3cc4c(=O)[nH]c(C)cn4n3)CC2)c1 | – | inconclusive: 31.6 µM [inhibitor, single point]
31 | Cc1ccc(-c2nc3ccccn3c2Nc2ccccc2C)s1 | – | inconclusive: 35.5 µM [inhibitor, partial curve, poor fit]
32 | COc1ccc2[nH]c3c(c2c1)CCNC31CCN(C(=O)C2CCCC2)CC1 | – | inconclusive: 8.91 µM [inhibitor, partial curve]
33 | Cn1c(=O)[nH]c(=O)c2c1nc(N/N=C/c1ccncc1)n2Cc1ccc(Cl)cc1 | – | inconclusive: 35.5 µM [inhibitor, single point]
34 | CCN(c1ccccc1)S(=O)(=O)c1cc(C(=O)O)cc2c1CCC2 | inactive: -7.07% | –
35 | O=C(Nc1ccc(Oc2ccccc2)cc1)O[C@@H]1CO[C@H]2[C@@H]1OC[C@@H]2n1nnnc1-c1ccc(-c2ccccc2)cc1 | – | inconclusive: 15.8 µM [inhibitor, single point]
36 | CCN1c2cc(C(=O)Nc3ccc(C)c(F)c3)ccc2C(=O)N2CCCCC21 (stereo not given) | – | inconclusive: 31.6 µM [inhibitor, partial curve, poor fit]
37 | CNC(=O)c1cc(Nc2nnc(-c3ccc(C)c(S(N)(=O)=O)c3)c3ccccc23)ccc1OC | – | inconclusive: 25.1 µM [inhibitor, single point]
38 | O=C(Nc1ccc2c(c1)OCCO2)c1cc2c(s1)-c1ccc(Cl)cc1S(=O)(=O)C2 | inactive: 5.63% | –
39 | Cc1ccc(NC(=O)CSc2n[nH]c(=O)c3cc(-c4ccco4)nn23)cc1C | inactive: -18.8% | –
40 | CCc1c(C)sc(NC(=O)C(c2ccccc2)c2ccccc2)c1C#N | – | inconclusive: 39.8 µM [inhibitor, partial curve, poor fit]
